Test results published in the supplement of paper PMC9334596.
Values joined by “and” are separate entries in the source; they are usually repeats but may differ in a detail not shown here. Equal values may be shown once. Over roughly 5,300 compounds, “PER2::LUC luminescence relative to vehicle control” has its median near 0.96; the highest 2% begin near 1.3. The list shows a part of the results.

System: mPer2Luc MEF
Assay: PER2::LUC luminescence relative to vehicle control (fold of vehicle); higher = higher PER2::LUC reporter signal
Conditions: 10 µM
Procedure, shortened: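 The reported values are PER2::LUC luminescence as fold of vehicle control in mouse embryonic fibroblasts carrying the mPer2Luc reporter. Cells were seeded at ~3000 per well in 384-well plates in DMEM with 10% FBS at 37 °C and 5% CO2, and compounds were added at 10 μM 48 h later. ONE-Glo luminescence was read 24 h and 30 h after treatment.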

| SMILES | PER2::LUC luminescence (time after treatment 24 h) | PER2::LUC luminescence (time after treatment 30 h) |
| --- | --- | --- |
| Cc1c(C(=O)O)c(O)cc2c1C(=O)c1c(O)c([C@@H]3O[C@H](CO)[C@@H](O)[C@H](O)[C@H]3O)c(O)c(O)c1C2=O | 1.02 | 0.987 |
| Cc1nc2sccn2c(=O)c1CCN1CCC(=C(c2ccccc2)c2ccc(F)cc2)CC1 | 0.916 | 0.95 |
| CC(C)=CCC/C(C)=C/CC/C(C)=C/CO | 1.05 | 1.13 |
| NC(N)=NC(=O)c1nc(Cl)c(N2CCCCCC2)nc1N | 1.06 | 1.13 |
| CS(=O)(=O)c1ccc(-c2cc(Br)sc2-c2ccc(F)cc2)cc1 | 1.07 | 1.04 |
| O=C1CN(/N=C/c2ccc([N+](=O)[O-])o2)C(=O)N1 | 1.05 | 1.26 |
| c1ccc2c(c1)CN1CCCC1=N2 | 1.03 and 0.845 | 0.945 and 0.866 |
| S=c1ccss1 | 0.946 | 0.894 |
| CC1=C(CC(=O)O)c2cc(F)ccc2/C1=C\c1ccc(S(C)(=O)=O)cc1 | 1 | 0.896 |
| N[C@H](C(=O)O)c1ccc(C(=O)O)cc1 | 0.982 | 0.945 |
| CC(C)N(CCCNC(=O)Nc1ccc(C(C)(C)C)cc1)C[C@H]1O[C@@H](n2cc(Br)c3c(N)ncnc32)[C@H](O)[C@@H]1O | 0.698 | 0.757 |
| Cc1ccccc1OCC(O)CO (stereo unspecified) | 0.966 | 1.05 |
| CC(C)CN(C)c1nc(N)c(C(=O)N=C(N)N)nc1Cl | 1.16 | 1.11 |
| CC1(C)S[C@@H]2[C@H](NC(=O)[C@H](C(=O)O)c3ccsc3)C(=O)N2[C@H]1C(=O)O | 1.05 | 0.927 |
| O=C(c1ccc2c(c1)OCCO2)N1CCCCC1 | 0.924 | 0.831 |
| CCCC(=O)OCc1ccc(OC(=O)/C=C(C)/C=C/C=C(C)/C=C/C2=C(C)CCCC2(C)C)cc1 | 1.02 | 1.16 |
| Cc1cc(NS(=O)(=O)c2ccc(N)cc2)no1 | 1.11 | 1 |
| CN[C@@H]1[C@@H](O)[C@@H](O[C@@H]2[C@@H](O)[C@H](O[C@H]3OC(CN)=CC[C@H]3N)[C@@H](N)C[C@H]2N)OC[C@]1(C)O | 1.12 | 0.807 |
| O=C1CN(/N=C/c2ccc(-c3ccc([N+](=O)[O-])cc3)o2)C(=O)N1 | 0.841 | 0.783 |
| Nc1[nH]nc2nnc(-c3c(-c4ccccc4)nn4ccccc34)cc12 | 0.842 | 0.866 |
| C=C[C@@H](C1=CC(=O)C(OC)=C(OC)C1=O)c1ccccc1 | 1 | 0.958 |
| CC(C)OC(=O)CCC/C=C\C[C@@H]1[C@@H](/C=C/[C@@H](O)COc2cccc(C(F)(F)F)c2)[C@H](O)C[C@@H]1O | 0.95 | 0.917 |
| C[C@@H](NC(=O)c1cc(C(=O)N[C@@H](Cc2ccccc2)[C@H](O)CNC2CC2)cc(N(C)S(C)(=O)=O)c1)c1ccccc1 | 1.01 | 1.09 |
